# Experimental data taken from paper PMC12136788.
# This is one part of the list.
# T1: UNK ZnF1-3 (human, UniProt Q9C0B0 31-174)
# T1 sequence: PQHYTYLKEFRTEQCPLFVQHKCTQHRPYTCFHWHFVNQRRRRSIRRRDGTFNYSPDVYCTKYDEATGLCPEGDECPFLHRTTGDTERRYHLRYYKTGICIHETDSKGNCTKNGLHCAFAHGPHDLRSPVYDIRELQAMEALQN
# B1: chr12:105540249:105540250:+_ENSG00000136051_ENST00000332180|hu_hu|motif|central (ssRNA)
# RNA: GGGAGUUCUACAGUCCGACGAUCAUUGUUGAGAUUAUAGAGGUAUCGGGACACAAAUAUAUGAAUGUUUCUCAUAAUUUCGGAAACAUCAAGGCCCUGUUCCAAAGUCUGACUGGGAAGAUGUGCCUCUGUCAUAACCAGUCCCAACAGAGGAUUGAGCAUCA
# B2: chr1:109605286:109605287:-_ENSG00000197780_ENST00000461096|hu_mus|hu_hu_hu_mus_True|38_68 (ssRNA)
# RNA: GGGAGUUCUACAGUCCGACGAUCAAGUUUCAGAGUAACAUUCAGUAACCUCUUUAAAUGCAAUUAUCCUUACUUUAAGCUAAGCAGAAUAAUAAUUUAAUACAUAGAGUGAACUACACACAAAGCCUGAACCGCGAAAAUGGUCAACAGAGGAUUGAGCAUCA
# B3: chr19:8871877:8871878:-_ENSMUSG00000071662_ENSMUST00000096261|mus_mus|FALSE|FALSE (ssRNA)
# RNA: GGGAGUUCUACAGUCCGACGAUCGCCUGGCUGGAUCACACCAGCACCAAUAUUGUCGAUGGUGGUGACAGCAAUUACAAAGCCAUAUUUCCCAGUGCAGGUCCCCUCCACCUCGGUAAACAGCUUCUGCUUCACCGUGUUGAGCAACAGAGGAUUGAGCAUCA
# B4: chrX:71549400:71549401:+_ENSMUSG00000019087_ENSMUST00000019231|mus_hu|mus_mus_mus_hu_False|48_68 (ssRNA)
# RNA: GGGAGUUCUACAGUCCGACGAUCGCAGUAGGAAGAGGGAAGCUCUUCAGUCCAGUGCGCUGCAGGGAGAAACAUGAACAACACGGAACCAAUACUCCCCUCAACCCCCCCACUGGCACAGGGUCACACAAUCUGGGUCAAAGACAACAGAGGAUUGAGCAUCA
# B5: chr2:91446484:91446485:+_ENSMUSG00000040549_ENSMUST00000099716|mus_mus|motif|central (ssRNA)
# RNA: GGGAGUUCUACAGUCCGACGAUCCAACUUCUCAUCUGCCAUGUGUGUGCUGUAGAUGAGUCUUAGCUGCAUGAAUGUUGCGGUCAGAAACUGAUCAAUGUGGCCAGACAUAGCUUCAGCUUUGUCUUCCUGCCUCAGGACCUCCAACAGAGGAUUGAGCAUCA
# B6: chr2:48026839:48026840:+_ENSG00000116062_ENST00000540021|hu_hu|hu_hu_hu_mus_False|8_98 (ssRNA)
# RNA: GGGAGUUCUACAGUCCGACGAUCAUAGUGAGCCACUAGAGUCCUAAAUCUGGAACAGUGGCGGUCAUCCGAAAACUGGCCGAUGAAAAACUUGCCCAGUGAAGUGUCCACAAAGCAAACACCAUACGCACGAGUAUGACCAGACAACAGAGGAUUGAGCAUCA
# B7: 48360997_48361988_690_CDS_ENSG00000134291_ENST00000256686|human|control|control (ssRNA)
# RNA: GGGAGUUCUACAGUCCGACGAUCACAAUCCACAUAGUGAUGUGUCUCCAAGGAGCUCUGGGUCAUGAGGCCAAUGUAUGAAAUCUUCACUGAAGUUCGCAUGAAGAUCACUAUGUUGUGCACCAGGAUCUCAGGUACCGUGCACAACAGAGGAUUGAGCAUCA
# B8: chr1:90180492:90180493:+_ENSG00000171488_ENST00000370454|hu_mus|FALSE|FALSE (ssRNA)
# RNA: GGGAGUUCUACAGUCCGACGAUCUUUCAUCUGCUCCCGGACAUCUGAGGGCAGAGUCUCAAACAGAGCAUCUUCCACAACUAGCCCGGCUCGCUUCAGAGCCCGGCAGUCUCCCAGCUCGGGAGGGAGGACUUCAAAGUGAUUCAACAGAGGAUUGAGCAUCA
# B9: 50683453_50683573_993_CDS_ENSG00000016082_ENST00000230658|human|control|control (ssRNA)
# RNA: GGGAGUUCUACAGUCCGACGAUCCAGUGGCCGCGCUGGAUGCAGGGGACUGAGCGGGUCGCCAGCGCCUAGACUGGCCCUCUCCACCACAUCGUGGUCUGCUCGGCAGAAGAGACCGUCCUCCCGAAGCGCAAAUUCGUCCCCCAACAGAGGAUUGAGCAUCA
# B10: chr2:65315729:65315730:-_ENSG00000138069_ENST00000409751|hu_hu|FALSE|FALSE (ssRNA)
# RNA: GGGAGUUCUACAGUCCGACGAUCAACAUUGGACUUCUCAGCACCACCAGCUGUUGCUCCGGGACCCAUUCGCUUUUUAAUCUCAGCUGCCAUCGUCAUGAAAGACUGUUCUACAUUCGUUGCAUUCUUAGCACUGGUUUCCAACAACAGAGGAUUGAGCAUCA
# B11: chr4:17845017:17845018:+_ENSG00000109805_ENST00000514176|hu_mus|hu_hu_hu_mus_False|18_108 (ssRNA)
# RNA: GGGAGUUCUACAGUCCGACGAUCGCUUCCUAACUUAGUAUCUUCAUUAAGGAACUCUGCAAGGUUAAGUUUACUUUUCUGUAGCGCAGCUGUUUUGGCUCGUCUGGGUAAUCUCAUUUCAUUUCUGGAUGGUGGUUCAUGAUCCAACAGAGGAUUGAGCAUCA
# B12: chr6:67234166:67234167:+_ENSMUSG00000036371_ENSMUST00000042990|mus_mus|motif|central (ssRNA)
# RNA: GGGAGUUCUACAGUCCGACGAUCUGAAGAAUGCAUAUUCUCUGAAAAUUAUGAAAACAUCCCUGCUACCAAUACAUUUCGGAAUACAAAACUGACUAACAUAUUUUGUUACUUCUGUGUAGCUAGAGAAGUUCGUUUUCAAAACAACAGAGGAUUGAGCAUCA
# B13: 118866371_118866491_1417_3pUTR_ENSG00000125629_ENST00000245787|human|control|control (ssRNA)
# RNA: GGGAGUUCUACAGUCCGACGAUCUCAUUUUCACCCUGUAUCAAAACACUCCAAACUCUAUGAAACAACAUUAAAUUAGAAACUAACCACAAAUUAGGGCACUCAUAACUCAUACUGCUGUGAUUAGAAAAAUAAAAAGGCACACAACAGAGGAUUGAGCAUCA
# B14: chr2:157388187:157388188:+_ENSMUSG00000067786_ENSMUST00000109526|mus_hu|FALSE|FALSE (ssRNA)
# RNA: GGGAGUUCUACAGUCCGACGAUCUUUUGUAGAGGUGGUCCCUGUCCUCCAGGAGCUUACAAUCUAGCUGGGGAGACACAACUAAUGCACACUUAAACAAUCAGUACAAUUAGCGAUUACCACAAUAUUGACCACAACUGCAUGCAACAGAGGAUUGAGCAUCA
# B15: chr12:100720429:100720430:+_ENSG00000136021_ENST00000360820|hu_mus|motif|central (ssRNA)
# RNA: GGGAGUUCUACAGUCCGACGAUCGAAGGGUAGGAUAUCAUCAAGCACAAACCACUUAUCCAGGUACUCCAGGAUCUUCCCGGAGCACACUAAUGAAUUCACACGGACAGCAAGGGAAGACGUUUGUAAACAGGCAUUUUUAAUCAACAGAGGAUUGAGCAUCA
# B16: 100764764_100764973_1268_CDS_ENSMUSG00000004040_ENSMUST00000127638|mouse|control|control (ssRNA)
# RNA: GGGAGUUCUACAGUCCGACGAUCCUUGAUGACUAAGGGCCGGUCCGGGUGCAUGGGCAUGCAGGGCUGCCGCUCCACCACGAAGGCACUCUUCAUUAAGUUUCUGAACAGCUCCACGAUCCUCUCCUCCAGCAUGGGCCGGUGCAACAGAGGAUUGAGCAUCA
# B17: chr8:104061119:104061120:+_ENSG00000155097_ENST00000518738|hu_hu|motif|central (ssRNA)
# RNA: GGGAGUUCUACAGUCCGACGAUCCAGAUUCUCUUGAACUUUGUCUUUGCUAUCUUCCAAUACAUCAGCCAUGUAUUGAGCGGCUUUCUUAACCACUCCUUCUACAAAUGCAUCCAGUUUAGCCAGUUCAUCUGACAAGCCAACCAACAGAGGAUUGAGCAUCA
# B18: chr13:33351070:33351071:+_ENSG00000083642_ENST00000315596|hu_hu|FALSE|FALSE (ssRNA)
# RNA: GGGAGUUCUACAGUCCGACGAUCUGAUCCCACCUGAGCUGCUUUGAUAUAUGACAGCCUCUCAUAAUUACUGGUGUCACUAUUGUUGUAAAUGAAGAAUAGUUGAAUAUGGAGAGAUUAAGACACAAUUCAAAACACUUUUUACAACAGAGGAUUGAGCAUCA
# B19: chr17:88387627:88387628:+_ENSMUSG00000005370_ENSMUST00000005503|mus_hu|FALSE|FALSE (ssRNA)
# RNA: GGGAGUUCUACAGUCCGACGAUCAAAAUCAUCUCCAAAAAAAGUCUUCGUAAUGCAAGGAUGGCGUGAUCCUUUAAGCUCUAAGAAGGGGGGGGUAUCUUCCGGCAACAGAAUUACUGGGCGACACAUAGGACCAUCACCCCCCAACAGAGGAUUGAGCAUCA
# B20: 64356606_64389926_236_CDS_ENSG00000118482_ENST00000393387|human|control|control (ssRNA)
# RNA: GGGAGUUCUACAGUCCGACGAUCAUCCAUAAUAUCGUCAAGACCAACAACUGUUGAACAAGGCAUCUGGAAAUUGGGAUCAUUGCUAUCCAAAACAGGCAAACAGAACUGGUUACUUGCAGAUCCUAGCAUAGGAUCCUUAUCCAACAGAGGAUUGAGCAUCA
# B21: chr10:61154807:61154808:+_ENSMUSG00000020088_ENSMUST00000020285|mus_mus|FALSE|FALSE (ssRNA)
# RNA: GGGAGUUCUACAGUCCGACGAUCAACUCUUUCAUGAGGCAAAAGUCACUUUUUAUAUCUACAAUGGAAAAAAGGAAGGUGCUACACAGAGAGAUGAAAUUUCACAACAGUAUAAAAGCAAAGCCUGCUGAAACUGGUAACUGCCAACAGAGGAUUGAGCAUCA
# B22: chrX:76939635:76939636:-_ENSG00000085224_ENST00000373344|hu_mus|FALSE|FALSE (ssRNA)
# RNA: GGGAGUUCUACAGUCCGACGAUCUAACUUCAUAGCAGAAGUCAUUUCUGAAUUAUCUGCUGCCUGUUUUAGAAACUUAAUGUAACUGGAGUUCAUGUUGGAUGUAGUCUCAAUCAGUUUUGUUGUCUUCUUAAUCAUCUCUUUCAACAGAGGAUUGAGCAUCA
# Target: T1, UNK ZnF1-3
# Test: nsRBNS (natural sequence RNA bind-n-seq); RBNS binding buffer (assumed for nsRBNS): 25 mM Tris pH 7.5, 150 mM KCl, 3 mM MgCl2, 0.01% Triton X-100, 500 ug/ml BSA, 20 U/ml SUPERase-In, 4 C; UNK is unkempt and MSI1 is Musashi-1; names of the RNAs are library labels; protein concentration not given here; high values mean tight binding
row,Binder,binding signal [enrichment R]
1,B1,1.5
2,B2,0.711
3,B3,0.804
4,B4,1.95
5,B5,0.531
6,B6,1.07
7,B7,0.76
8,B8,0.929
9,B9,1.35
10,B10,1.05
11,B11,0.601
12,B12,0.496
13,B13,1.75
14,B14,1.59
15,B15,1.4
16,B16,0.636
17,B17,0.723
18,B18,2.2
19,B19,1.25
20,B20,0.999
21,B21,1.42
22,B22,0.527
